From PubChem BioAssay AID1346428 (National Center for Advancing Translational Sciences (NCATS), 2018)
Several values for one entry are separate records, joined by “and”; a condition that tells them apart may be missing. Equal entries are not always repeated. Hit rate of the full screen: of about 48,000 compounds, about 1,200 (2.5%) were called active. Roughly 2% stayed inconclusive and do not appear here.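 How the source made its calls: active means activation of at least 60% and not above a set upper limit (about 1 call in 100 departs from these limits); inconclusive means activation of 40% to 60%, or above that upper limit; inactive means activation under 40%.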 This is one part of the list.

Each molecule was assayed against Probable G-protein coupled receptor 32 (Homo sapiens) (UniProt O75388) (assay: qHTS for Agonists of Human Resolvin D1 Receptor DRV1). Conditions: CHO-K1 GPR32 beta-arrestin PathHunter luminescence, 90 min; at 76.9 µM; stronger effect = higher value; zero percent set by DMSO-only wells.
Chain of UniProt O75388 (O75388 whole entry, looked up): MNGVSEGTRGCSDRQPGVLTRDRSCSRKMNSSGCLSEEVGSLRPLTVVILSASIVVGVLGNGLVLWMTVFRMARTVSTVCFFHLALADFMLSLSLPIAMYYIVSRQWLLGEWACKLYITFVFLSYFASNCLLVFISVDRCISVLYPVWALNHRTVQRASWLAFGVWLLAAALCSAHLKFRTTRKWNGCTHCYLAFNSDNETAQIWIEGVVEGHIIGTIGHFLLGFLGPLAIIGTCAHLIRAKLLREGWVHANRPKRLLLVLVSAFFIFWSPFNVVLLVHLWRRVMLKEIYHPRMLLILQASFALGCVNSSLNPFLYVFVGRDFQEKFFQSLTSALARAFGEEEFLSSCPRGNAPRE
Summary of the method: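 Using DMSO wells as EC0, agonist-induced signal was taken as chemiluminescence from beta-Gal reconstituted upon beta-arrestin recruitment to GPR32 in CHO-K1 cells after 90 min compound treatment.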

activation, active:
Cc1ccc(NC(=O)CSc2nc(C)c(Cc3ccccc3)c(=O)[nH]2)cc1 62.7%
COCCCNC(=O)Cn1c(=O)n(Cc2ccc(C(=O)NCc3ccc(C)cc3)cc2)c(=O)c2ccccc21 98.3%

activation, inactive:
CC(C)(C)OC(=O)N1CCC(c2c(C(=O)NCCN3CCC(Cc4ccccc4)CC3)cnn2-c2cccc(Cl)c2)CC1 26.4%
O=C(NCc1ccc(Cl)cc1)C(=O)NCC(c1cccs1)S(=O)(=O)c1ccc(Cl)cc1 (stereo not given) -14.2%
CCCNC(=O)c1ccc2c(c1)N=C(C)c1c(C)ccc(C)c1S2 -1.41%
O=C(NCCCN1CCN(c2ccccc2)CC1)c1nnc(Cc2c(F)cccc2Cl)o1 -23.7%
CCOC(=O)C1CCN(C(=O)c2cc3ccc4cccnc4c3[nH]2)CC1 -5.17%
CCOc1ccc(CCNC(=O)C2CCN(c3ncnc4c3nc3n4CCCCC3)CC2)cc1 -11.6%
COc1ccc(N2CCN(C(=O)c3cnc(N4CCCC4)nc3C)CC2)cc1 -3.48%
CSc1ccc(CNC(=O)CCn2ccc3cc(S(=O)(=O)N4CCC(C)CC4)ccc32)cc1 -30.5%
COc1cccc(-n2nnc3c(sc4nc(C)cc(C)c43)c2=O)c1 -0.939%
Cc1c(Cl)cccc1NC(=O)N1CCC(CN2CCCC2)CC1 -10.4%
CCC(Sc1nc2ccccc2c2nc(CCc3c(C)n[nH]c3C)nn12)C(=O)Nc1ccc(F)cc1 (stereo not given) 0.369%
COc1ccccc1CNS(=O)(=O)c1ccc2[nH]c3c(c2c1)CCCCC3 35.2%
CC1=C(c2ccc(C)cc2)S(=O)(=O)N(Cc2ccc(C(=O)NCc3cccc(C)c3)cc2)C1=O -10.7%
COC(=O)c1ccc(NC(=O)CSc2nc3ccc(OC)cc3[nH]2)cc1 47.6%
O=C(NCc1ccccc1Br)C1CCCN(C(=O)N2CCOc3ccccc32)C1 (stereo not given) -5.43%
COC(=O)c1c(NC(=O)c2cc(=O)c3ccc(C)c(C)c3o2)sc2c1CCCC2 19.3%
COc1ccc(CCNC(=O)CN(c2ccccc2OC)S(=O)(=O)c2ccc(C)cc2)cc1 -2.36%
O=C(Nc1sc2c(c1C(=O)Nc1ccccc1Cl)CCCC2)c1ccccc1F -12.9%
COc1ccc(CCNC(=O)Cc2c(C)c3c(cc(C)c4c(C)coc43)oc2=O)cc1 -5.81%
COc1ccc(-c2cc3nc(-c4ccccc4)cc(C(F)(F)F)n3n2)cc1 -5.71%
Cc1ccc(NC(=O)CN2C(=O)CSc3ccc(S(=O)(=O)N4CCCC4)cc32)cc1F -16.7%
COC(=O)c1cc(NC(=O)c2oc(=O)c3ccccc3c2-c2ccccc2)cc(C(=O)OC)c1 -4.48%
COc1cc(OC)c(NC(=O)c2nnn(Cc3ccc(C)cc3)c2N)cc1Cl -10.5%
Cc1ccc(NC(=O)c2c(NC(=O)c3ccco3)sc3c2CCC(C(C)(C)C)C3)c(C)c1 (stereo not given) 10.7%
CCc1ccc(NC(=O)c2cc(S(=O)(=O)NC3CCCC3)ccc2F)cc1 -6.4%
COc1ccc(Br)cc1CNC(=O)Cn1c(=O)c2cccn2c2ccc(F)cc21 -13%
O=C(Cc1ccc(F)cc1)NC1CC(=O)N(c2ccc3c(c2)OCCO3)C1 (stereo not given) -1.95%
COc1cccc(-c2cn3c(n2)sc2cc(C(=O)NC4CCCCCC4)ccc23)c1 -11.4%
O=C(Cn1ncc2c3ccccc3n(Cc3ccc(Cl)cc3)c2c1=O)N1CCCCCC1 -15%
CCC(C)c1ccc(OCC(=O)Nc2cccc(-c3nc4ncccc4o3)c2)cc1 (stereo not given) 47%
CCOc1ccc(NC(=O)c2oc3ccccc3c2NC(=O)Cc2ccc(F)cc2)cc1 -14.1%
Cc1ccccc1Cn1cc(CCC(=O)NC(C)c2ccccc2)c2ccccc21 (stereo not given) -36.3%
Cc1cc(C)c2oc(-c3cccc(NC(=O)c4ccc(Br)o4)c3)nc2c1 -1.46%
COc1ccc(OC)c(NC(=O)CN(C)S(=O)(=O)c2ccc(C(=O)N3CCOCC3)s2)c1 -11%
O=C(Cn1cnc2c(oc3ccccc32)c1=O)Nc1ccccc1C(F)(F)F -7.47%
COc1ccc(C)cc1NC(=O)N(Cc1ccc(C)o1)C1CCN(C(C)=O)CC1 -10.2%
Cc1ccc(-c2nnc(Nc3cccc(Cl)c3)c3ccccc23)cc1S(=O)(=O)N1CCOCC1 -1.66%
COc1ccccc1NC(=O)Cn1c(=O)n(Cc2ccccc2)c(=O)c2sc3ccccc3c21 -1.24%
Cc1cc(C)c(NC(=O)CSc2nc3ccccc3nc2N2CCCCC2)c(C)c1 2.68%
CC1CCN(C(=O)Cn2cc(SCC(=O)NCc3ccccc3Cl)c3ccccc32)CC1 -20.5%
CCC(=O)Nc1cc(C)c(O)c(-c2nc3ncccc3o2)c1 -9.52%
O=C(NCc1cccc(Cl)c1)c1cc2ccc3cccnc3c2[nH]1 46.3%
CC(C)COc1ccc(C(=O)Nc2ccc(S(=O)(=O)Nc3ncccn3)cc2)cc1 -5.29%
CCC(C(=O)Nc1cccc(Cl)c1C)n1nc(-c2ccc(C)cc2)ccc1=O (stereo not given) 47.3%
CC(C)COc1cccc(C(=O)Nc2ccc(-c3nc4ncccc4o3)cc2)c1 -2.99%
CCCc1nc2sc3c(N4CCC(C)CC4)ncnc3c2c2c1CCCC2 7.53%
Cc1cccc(N2CCN(S(=O)(=O)c3ccc4c(c3)CCCN4C(=O)C3CCC3)CC2C)c1 (stereo not given) -27.4%
Cc1ccc(Cl)cc1NC(=O)C(C)n1nnc2sc3c(c2c1=O)CCCC3 (stereo not given) 6.77%
CCCN1C(C(=O)c2ccccc2)=C(OC(=O)COc2ccccc2)c2ccccc2S1(=O)=O -69.7%
O=C(NC1CCCCCC1)c1ccc2c(c1)sc1nc(-c3ccc(F)cc3)cn12 0.18%
CCOc1ccc(NC(=O)CN2C(=O)C(c3ccccc3)=NC23CCC(C)CC3)cc1 (stereo not given) -21.7%
CCOC(=O)c1ccc(CN(Cc2ccc(F)cc2)S(=O)(=O)c2cc(C(=O)Nc3cccc(C(F)(F)F)c3)ccc2F)cc1 -13.1%
COc1cc2c(=O)c(S(=O)(=O)c3ccc(F)cc3)cn(Cc3ccc(Cl)cc3)c2cc1OC -5.73%
Cn1c(=O)n(-c2ccc(Br)cc2F)c(=O)c2sc3ccccc3c21 2.46%
COc1ccc(Cn2c(=O)[nH]c3cc(C(=O)N4CCN(c5cccc(Cl)c5)CC4)ccc3c2=O)cc1 14.4%
CC(=O)c1ccc(NC(=O)c2noc3c2CCc2ccccc2-3)cc1 8.2%
CC1(C)O[C@@H]2C[C@H]3[C@@H]4CCC5=CC(=O)CC[C@]5(C)[C@@]4(F)[C@@H](O)C[C@]3(C)[C@]2(C(=O)CCl)O1 -27.4%
O=C(Nc1ccc(C(=O)OCc2cc(=O)n3c4c(sc3n2)CCCC4)cc1)c1ccccc1 -7.86%
COc1ccc(C2C(C(N)=O)=C(C)Nc3nc(CCCO)nn32)c(OC)c1 (stereo not given) -19.4%
CCOc1ccc(NC(=O)Cn2cc(C(=O)c3ccc(CC)cc3)c(=O)c3cc(C)ccc32)cc1 -5.09%
COc1cccc(-c2nc(SCc3cc(=O)c4ccc(C)c(C)c4[nH]3)n[nH]2)c1 25.1%
CCOc1cccc(C(=O)Nc2ccc(S(=O)(=O)N(Cc3ccccc3)c3ccccc3)cc2)c1 1.91%
Cc1ccc(Cc2c(C)nc3nc(SCC(=O)NC(C)c4ccccc4)nn3c2C)cc1 (stereo not given) -14.9%
CCCN(C(=O)c1nn(-c2ccc(OC)cc2)c(=O)c2c1c1ccccc1n2C)c1ccc(CC)cc1 -8.83%
Cc1ccc(Cc2nc3ccccc3nc2SCC(=O)NCCC(C)C)cc1 -16.7%
COc1ccc(NC(=O)c2csc3c2CCCCC3)cc1 -22.9%
C[C@]12C=CC(=O)C=C1CC[C@H]1[C@@H]3C[C@@H](O)[C@](O)(C(=O)CO)[C@@]3(C)C[C@H](O)[C@@]12F -4.43% and -8.17%
CCOCCCn1c(SCC(=O)Nc2ccc(C(C)C)cc2)nc2c(sc3ccccc32)c1=O 0.321%
O=C(CSc1nc2c([nH]c3ccccc32)c(=O)n1-c1ccc(F)cc1)NCc1ccccc1 32.7%
COc1ccc(S(=O)(=O)c2nnn(-c3cc(Cl)c(OC)cc3OC)c2C)cc1 -19.1%
COc1ccc(C(=O)NCC(c2cccnc2)N2CCc3ccccc3C2)cc1OC (stereo not given) -13.4%
COC(=O)c1cc2occc2n1Cc1nc(-c2ccccc2F)oc1C -5.4%
Cn1c(=O)c2c(-c3ccccc3)n3c4ccccc4nc(-c4ccccc4)c3c2n(C)c1=O 0.609%
CCn1c(=O)c2cc(C(=O)Nc3cc(F)ccc3F)sc2c2ccccc21 -1.01%
O=C(Nc1cccc(-c2nc3cc(Cl)ccc3o2)c1)c1cc([N+](=O)[O-])ccc1N1CCOCC1 5.07%
Cc1ccc(CN2CCC(CNc3ncnc4onc(-c5ccc(F)cc5)c34)CC2)cc1 31.5%
COc1ccc(CN2C(=O)c3oc4ccccc4c(=O)c3C2c2ccc(O)cc2)cc1 (stereo not given) -2.66%
Cc1ccc(NC(=O)C2CCN(c3nc4ccccc4nc3C(F)(F)F)CC2)cc1F 5.49%
